Measured values from PubChem BioAssay AID1508624 (National Center for Advancing Translational Sciences (NCATS), 2021).
The whole screen tested about 48,000 compounds, of which about 120 (0.25%) were called active. Not shown: some 4% with an inconclusive outcome. Calls come from the whole dose curve; as a rule, active = well fitted activation curve with a large enough effect; inconclusive = small, poorly fitted or top-dose-only effect, or another doubt; inactive = no such curve, though single readings can be large or run the other way. The list shows a part of the results.

Assay: Primary qHTS for Identification of Small Molecule Activators of Huntingtin-Antisense Promoter Activity; note: nearly all actives have a fitted effect of over 55% in size
Details: HEK293 HTT-AS promoter firefly luciferase reporter (activity 0% = vehicle and -100% = no light), 24 h; series mostly up to 57.5 µM; activity change, positive = activation: at the top concentration
Method in brief: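 HEK293 luciferase promoter-reporter cells (2,500/well) plated 24 h, then compounds added at up to 57.5 uM final for 24 h at 37 °C. Firefly luminescence by Dual-Glo, normalized to vehicle (0%) and zero RLU (-100%).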

Activity change, positive = activation, inactive:
CCOC(=O)c1ccc(NC(=O)c2cc3c([nH]c2=O)CC(c2ccccc2)CC3=O)cc1 (stereo not given) -3.78%
N#C/C(=C1\SCC(c2ccccc2Cl)S1)n1ccnc1 (stereo not given) -5.46%
COc1ccc(-n2cc(-c3ccc4c(c3)OCO4)n(CC(=O)Nc3cccc(C)c3)c2=O)cc1 -1.95%
COc1cccc(-c2n[nH]c3c2C(c2ccccn2)N(C)C3=O)c1 (stereo not given) -8.91%
O=C(CC1N=C2c3ccccc3N=C(SCC(=O)Nc3ccc(F)cc3)N2C1=O)NCc1ccc2c(c1)OCO2 (stereo not given) 0.012%
Cc1cccc(NC(=O)Cn2cc(S(=O)(=O)Cc3ccccc3Cl)c3ccccc32)c1 -27.2%
Cc1cc(C)n(C(C)CC(=O)Nc2ccc(C)c(F)c2)n1 (stereo not given) -10.4%
Cc1ccccc1Cn1c(SCc2ccc(C(=O)NCCc3ccccc3)cc2)nc2ccncc21 -3.51%
CSc1ncc(Cl)c(C(=O)N(Cc2ccc(C(C)C)cc2)C2CCS(=O)(=O)C2)n1 (stereo not given) 0%
CCn1cc(S(=O)(=O)c2ccc(C)cc2C)c(=O)c2cc(F)c(N3CCCCC3)cc21 -25.4%
CCOc1ccc(NC(=O)CN2CCSc3ccc(S(=O)(=O)N4CCCC4)cc32)cc1 -38.8%
CCN(CC)c1cc2c(cc1F)c(=O)c(S(=O)(=O)c1ccccc1)cn2C 8.2%
COC(=O)c1c(NC(=O)/C=C/c2ccc(OC)c(OC)c2)sc2c1CCC2 -12%
Cc1cc(C)cc(N(CC(=O)NCc2ccccc2Cl)S(=O)(=O)c2c(C)[nH]c(=O)[nH]c2=O)c1 -5.59%
Cc1noc(Cn2c(=O)c3ccccc3n(CC(=O)Nc3ccc(C(C)C)cc3)c2=O)n1 -19.2%
CC(Nc1oc(-c2ccc(COc3ccc(Cl)cc3)o2)nc1C#N)c1ccccc1 (stereo not given) -17.6%
CCN(CC)CCCNC(=O)CN1C(=O)COc2ccc(S(=O)(=O)N3CCC(C)CC3)cc21 -11.6%
CCN(CC)c1ccc(NC(=O)CN2C(=O)c3cccnc3Oc3ccc(Cl)cc32)c(C)c1 -5.22%
COCCNC(=O)CSc1nnc2[nH]c(=O)cc(C)n12 10.7%
O=C(NCc1ccccc1)c1ccc2c(c1)nc1n2CCOC1 3.83%
CCc1ccccc1NS(=O)(=O)c1cc(Br)cc2c1N(C(=O)C1CC1)CC2 -56.7%
C[N+]1(C)CCCC(OC(=O)C(O)(c2ccccc2)c2ccccc2)C1 (stereo not given) -4.33%
CCOC(=O)Cn1c(=O)n(CC2CCCO2)c2nc(-c3c(F)cccc3Cl)nc(C(N)=O)c21 (stereo not given) -13.3%
CCc1cccc(NS(=O)(=O)c2cc(-c3cnc(C)o3)ccc2OC)c1 -20.8%
COc1cc(Cl)c(NC(=O)C(NS(=O)(=O)c2cccs2)C(C)C)c(OC)c1 (stereo not given) 7.16%
CCCN(Cc1cccs1)C(=O)Nc1ccc(F)c(Cl)c1 3.03%
COc1ccc(OC)c(Nc2c3c(nc4ccccc24)CCC3)c1 -39.6%
CCc1ccc(NC(=O)c2ccc(F)c(S(=O)(=O)NCCc3ccc(OC)c(OC)c3)c2)cc1 -27.7%
C[C@H]1O[C@H](O[C@H]2[C@H](O)[C@@H](O)[C@@H](O[C@H]3[C@H](O)[C@@H](O)C(O)O[C@H]3CO)O[C@H]2CO)[C@H](O)[C@@H](O)[C@H]1N[C@H]1C=C(CO)[C@@H](O)[C@H](O)[C@@H]1O (stereo not given in full) 0.075%
CS(=O)(=O)N1CCc2cc(C(=O)Nc3ccc(S(N)(=O)=O)cc3)ccc21 0.317%
COc1cccc(Nc2sc(C(=O)c3ccc(Cl)cc3)c(N)c2C(=O)NCCc2ccc(OC)c(OC)c2)c1 -11.2%
CC(=O)c1ccc2c(c1)N(CCCN1CCC(CCO)CC1)c1ccccc1S2 -16.5%
Cc1cccc(C(=O)OCc2cc(=O)n3nc(-c4cccs4)sc3n2)c1 1.48%
CCCSc1nnc2n(-c3cccc(C)c3)c(=O)c3c4c(sc3n12)CCCC4 -5.13%
Cc1ccc(C)c(NC(=O)Cn2c(=O)n(Cc3ccc4c(c3)OCO4)c(=O)c3ccccc32)c1 -16.3%
Cc1ccc(-n2ncc(C(=O)NCCCN3CCN(C)CC3)c2C2CCN(C(=O)OC(C)(C)C)CC2)c(C)c1 15.5%
CC(C)(C)OC(=O)N1CCC(c2c(C(=O)N3CCCCC3)cnn2-c2ccc(F)cc2F)CC1 -10.1%
Cn1c(Oc2ccccc2)nc2c1c(=O)n(Cc1ccc(Cl)cc1Cl)c(=O)n2C -30%
O=C(Cc1ccc(Cl)cc1)Nc1ccc2nn(-c3ccccc3)nc2c1 19.5%
Cc1ccccc1C(c1c(C)n(C)n(-c2ccccc2)c1=O)c1c(C)n(C)n(-c2ccccc2)c1=O -9.49%
CCC1CN(C(=O)N2CCC(C(=O)NCc3ccco3)CC2)c2ccccc2O1 (stereo not given) -12.4%
Cc1ccc(-n2c(SCC(=O)Nc3c(C)cccc3C)nc(O)c(C)c2=O)cc1 -16.2%
COCCNC(=O)C(=O)NCC(c1cccnc1)N1CCN(c2ccccc2)CC1 (stereo not given) -10.2%
CCOc1ccc2c(c1)c(=O)c(C(=O)c1ccc(C)cc1)cn2Cc1ccccc1OC -39.9%
CO[C@@]1(NC(=O)Cc2cccs2)C(=O)N2C(C(=O)O)=C(COC(N)=O)CS[C@@H]21 0.521%
CCOc1ccccc1NC(=O)CN1C(=O)C2(SCC(=O)N2c2ccc(C)cc2)c2ccccc21 (stereo not given) -24.3%
CC(C)c1ccc(NC(=O)Cn2c(=O)n(Cc3nc(-c4ccccc4)no3)c(=O)c3cc4c(cc32)OCO4)cc1 -5.44%
CC(=O)c1cccc(NC(=O)N2CCC(CN3CCCCC3)CC2)c1 -14.8%
N#CC(=Cc1ccc(O)c(O)c1)C(=O)NCc1ccccc1 13.6%
CCS(=O)(=O)c1ncc(Cl)c(C(=O)N(Cc2ccccc2)c2ccc(OC)cc2)n1 -94.2%
Cc1ccc(-n2ncc3c(=O)n(Cc4ccccc4C)cnc32)cc1C -11.7%
Cc1cc(C)c(CN2C(=O)c3ccccc3S(=O)(=O)c3ccc(C(=O)OCC4CCCO4)cc32)c(C)c1 (stereo not given) -29.6%
Cc1ccc2c(c1)C(c1ccc(F)cc1)N(C(=O)c1cccc(C(F)(F)F)c1)CC(=O)N2 (stereo not given) -30.1%
Cc1ccc(-n2nnnc2CNC(=O)c2ccccc2C)cc1C -8.77%
COc1cccc(N2CCN(Cc3cc(=O)oc4cc(C)ccc34)CC2)c1 -14.9%
CC(C)OCCCN1C(=O)c2[nH]nc(-c3ccccc3O)c2C1c1cccc(OCc2ccccc2)c1 (stereo not given) -44.1%
N#Cc1cccc(NC(=O)CCNS(=O)(=O)c2ccc3c(c2)CCN3C(=O)C2CC2)c1 -13%
CCOC(=O)c1c(C)[nH]c(CCC(=O)NCCCN2CCN(c3ccccc3F)CC2)c1C -13.4%
O=C(Nc1nnc(S(=O)(=O)N2CCc3ccccc32)s1)c1ccccc1Cl -15.8%
Cc1c2cnn(CC(=O)N3CCN(c4ccc(F)cc4)CC3)c(=O)c2c(C)n1Cc1ccccc1F -26.1%
CC1(COc2ccc3c(c2)ncn3-c2ccc3cccc(N4CCC(N)CC4)c3n2)COC1 -50.6%
Cc1cc(C)cc(-n2ccnc2SCC(=O)Nc2nc3ccc(C)cc3s2)c1 -8.19%
CN(C)c1ccc(CNC(=O)Cn2ccc3cc(S(=O)(=O)N4CCCCCC4)ccc32)cc1 -14.2%
COc1ccc(-c2nc(Cn3c(=O)cc(C)c4c(C)nn(-c5ccccc5)c43)c(C)o2)c(OC)c1 -15.2%
O=C(CCn1cnc2onc(-c3ccc(F)cc3)c2c1=O)N1CCN(c2ccccc2F)CC1 -8.44%
Cc1ccc2c(CC(=O)N(Cc3cccc(Cl)c3)C3CCS(=O)(=O)C3)coc2c1 (stereo not given) -5.27%
CNS(=O)(=O)c1cn(CC(=O)N2CCN(c3ccccc3OC)CC2)cc1S(=O)(=O)NC -9.18%
COC(=O)c1ccccc1NC(=O)Cn1c(=O)cc(C)c2c(C)nn(-c3cccc(Cl)c3C)c21 10.4%
COc1ccc(Cl)cc1NC(=O)Cn1cnc2sc(C)c(S(=O)(=O)N3CCN(c4ccccc4OC)CC3)c2c1=O 14.9%
O=C(CC1Nc2cccc3cccc(c23)NC1=O)Nc1ccc(F)cc1 (stereo not given) -23.7%
CCc1ccc2occ(CC(=O)Nc3c(C(=O)Nc4ccc(Cl)cc4)oc4ccccc34)c2c1 -0.242%
Cc1ccc(CNC(=O)C(=O)NCC(c2cccs2)S(=O)(=O)c2cccs2)cc1 (stereo not given) -18.2%
CC(C)(C)OC(=O)N1CCC(c2c(C(=O)Nc3ccc4c(c3)OCO4)cnn2-c2ccc(F)cc2F)CC1 4.87%
Cc1cc(-c2ccc(C)c(S(=O)(=O)N(Cc3cccs3)C(C)C)c2)on1 -50.8%
CCSc1nc2c([nH]c3ccccc32)c(=O)n1-c1ccc(OC)cc1 -9.05%
O=C(O)CCCC(=O)N1CCc2cc(S(=O)(=O)NCc3ccccc3)ccc21 -3.02%
Cc1cccc(NC(=O)CCNS(=O)(=O)c2ccc3c(c2)CCCC(=O)N3)c1C -8.73%
CCOC(=O)c1[nH]c2c(c1Cc1ccccc1)C(=O)CC(c1ccc(OC)cc1)C2 (stereo not given) -25.6%
CN(C)c1ccc(NC(=O)Cn2c(SCc3ccc(F)cc3)nc3cccnc32)cc1 -19%
Cc1ccccc1Cn1c(=O)n(CCCCC(=O)NCCc2ccccc2)c(=O)c2ccccc21 -9.5%
CCc1ccc(NC(=O)CSC2=Nc3ccccc3C3=NC(CC(=O)NCc4ccc5c(c4)OCO5)C(=O)N23)cc1 (stereo not given) -6.65%
c1coc(-c2nc3ccccn3c2Nc2ccc3c(c2)OCCO3)c1 9.59%
CCOc1ccc(NC(=O)CCS(=O)(=O)c2ccc3nc(C)sc3c2)cc1 -7.14%
Cc1ccc(Cn2c(SCc3ccc(C(=O)NCCc4ccccc4)cc3)nc3ccncc32)cc1 -10.7%
COc1ccc(-n2c(=O)c3sc4ccccc4c3n(CC(=O)N3CCCC3)c2=O)cc1 -2.04%
Cc1nc(-c2ccc(C)c(N3CCN(C(=O)Nc4ccc(Br)cc4)CC3)c2)no1 -37.7%
CCn1cc(S(=O)(=O)c2cccc(C)c2)c(=O)c2cc(F)c(N3CCCCC3C)cc21 (stereo not given) -1.01%
COc1ccc(-n2c(SCC(=O)N3CCCc4ccccc43)nc3c([nH]c4ccccc43)c2=O)cc1 -13%
COc1ccc(-c2cn3c(n2)sc2cc(C(=O)Nc4ccccc4F)ccc23)cc1 18.2%
COc1cc2c(=O)c(S(=O)(=O)c3ccc(C)cc3)cn(Cc3cccc(C)c3)c2cc1OC -22.8%
